According to PubChem BioAssay AID651820 (National Center for Advancing Translational Sciences (NCATS), 2012):
Among all 340,000 compounds or so, about 12,000 (3.5%) were called active. This list was built around the results that the source calls inconclusive (neither active nor inactive); the mix of calls is not that of the screen. The call rests on the fitted dose curve; in most records, active means well fitted inhibition curve with a large enough effect; inconclusive means small, poorly fitted or top-dose-only effect, or another doubt; inactive means no such curve, though single readings can be large or run the other way. Potencies of inconclusive entries are left out as doubtful fits.
On the % scale 0 is the no-effect control and ±100 the full control effect; potency means the concentration at half of the fitted maximal effect; tags describe the fitted curve by direction and shape.

Assay: qHTS Assay for Inhibitors of Hepatitis C Virus (HCV)
Settings: Huh7.5.1 HCVcc-Cre (HCVcc is cell-culture hepatitis C virus) infection, luciferase reporter, 44 h; activity change, negative = inhibition: at 41.8 µM (top of the series) unless noted
Method in brief: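 Seed cells (1,000/well) for 4 h; treat with compound and infect with HCVcc-Cre, moi about 0.5. Incubate 44 h, then detect luciferase activity.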
With COc1ccc(-c2csc(NC(=O)c3ccccc3NS(=O)(=O)c3ccc(F)c(F)c3)n2)cc1 the Potency was active: 2.82 µM. With CC(C)(C)NC(=O)C(OC(=O)c1cccs1)c1ccc(F)cc1 (stereo unspecified) the Potency was “inactive”. With O=C(Nc1ccc(F)cc1)N1CCN(c2ccc3nnc(-c4ccc(F)cc4)n3n2)CC1 the Potency was inconclusive [inhibitor, single point]. In the case of CCOc1ccc(S(=O)(=O)N(CC)CC)cc1NC(=O)c1ccc(N2CCCC2=O)cc1, the Potency is reported as inconclusive [inhibitor, single point]. In the case of O=c1c2ccccc2nc(/C=C/c2ccccc2)n1-c1ccccc1O, the Potency is reported as “inactive”. With CNc1nc(-c2ccc3c(c2)CCN3S(=O)(=O)c2ccccc2)c(C)s1 the Potency was inconclusive [inhibitor, partial curve]. In the case of CCC(=NCCc1ccccc1)c1c(O)n(C2CCCCC2)c(=O)[nH]c1=O, the Potency is reported as inconclusive [inhibitor, single point]. In the case of COC(=O)Cc1c(-c2[nH]c3ccccc3c2CC(=O)OC)[nH]c2ccccc12, the Potency is reported as inconclusive [inhibitor, single point]. With Cc1cc2occ(CC(=O)N(C)CC(=O)Nc3ccc(F)cc3)c2cc1C the Potency was inconclusive [inhibitor, single point]. For N#CCSc1nc2c(c(=O)n1Cc1ccccc1)C1(CCCC1)Cc1ccccc1-2, the Potency was inconclusive [inhibitor, partial curve]. With CC1CCN(S(=O)(=O)c2cccc(C(=O)NC3CCCC3)c2)CC1 the Potency was inconclusive [inhibitor, single point]. With O=C(COC(=O)C1CC1)Nc1ccc2c(c1)OCO2 the Potency was “inactive”. For O=C(NNc1nc2cc3c(cc2s1)OCO3)c1cccc(F)c1, the Potency was “inactive”. In the case of CC(C)OC(=O)c1cc(NC(=S)Nc2ccc([N+](=O)[O-])cc2)cc(C(=O)OC(C)C)c1, the Potency is reported as inconclusive [inhibitor, single point]. In the case of COCCN(Cc1ccccc1)C(=O)c1cc(S(=O)(=O)N2CCCCCC2)ccc1OC, the Potency is reported as “inactive”. In the case of Cc1ccc(C(=O)N2CCCC2)cc1S(=O)(=O)N1CCCCC1, the Potency is reported as “inactive”. For Cc1cc(SCC(=O)c2cccs2)n2nc(C)c(-c3ccc(Cl)cc3)c2n1, the Potency was inconclusive [inhibitor, partial curve, poor fit]. In the case of CCn1cc(C(=O)Nc2sc(C)c(C)c2C(=O)OC)cn1, the Potency is reported as inconclusive [inhibitor, single point]. With Cc1cc(C)c(-c2csc(NC(=O)C3=COCCO3)n2)c(C)c1 the Potency was inconclusive [inhibitor, partial curve, poor fit]. For O=S(=O)(CCN(CCS(=O)(=O)C(F)(F)F)CC1CCCO1)C(F)(F)F (stereo unspecified), the Potency was inconclusive [inhibitor, single point]. In the case of COc1cccc(-c2csc(N3CCN(C(=S)Nc4cccc(C)c4)CC3)n2)c1, the Potency is reported as inconclusive [inhibitor, partial curve, poor fit]. With Cc1ccc(N(CC(=O)NCc2ccc3c(c2)OCO3)S(=O)(=O)c2c(C)noc2C)cc1 the Potency was inconclusive [inhibitor, single point]. With O=C(O)c1[nH]c(=O)[nH]c(=O)c1F the Potency was inconclusive [inhibitor, single point]. In the case of O=C1C2C3C=CC(C3=C3CCCCC3)C2C(=O)N1Cc1ccccc1 (stereo unspecified), the Potency is reported as “inactive”. In the case of COc1ccc(C2CC(c3ccc(OC)cc3)n3nc(NC(=O)c4cccs4)nc3N2)cc1 (stereo unspecified), the Potency is reported as inconclusive [inhibitor, full curve]. With O=C(NCCCSc1ccccc1)c1cc(Br)ccc1O the Potency was inconclusive [inhibitor, single point]. In the case of O=C(CSc1nc(-c2cccs2)cc(C(F)(F)F)n1)NCc1ccccc1, the Potency is reported as active: 3.98 µM. With O=C(NCc1ccco1)C1CC2CCC1C2 (stereo unspecified) the Potency was inconclusive [inhibitor, single point]. With COc1ccc(CNC(=O)COc2ccc(C(=O)c3ccc(F)cc3)cc2)cc1 the Potency was inconclusive [inhibitor, partial curve]. In the case of CCOC(=O)C1=C(N)Oc2ccc3ccccc3c2C1c1cccc(O)c1 (stereo unspecified), the Potency is reported as inconclusive [inhibitor, single point]. In the case of O=C(CNC(=O)c1ccco1)NCC(=O)OCc1ccc(F)cc1, the Potency is reported as “inactive”. With Clc1ccc(-n2ncc3c(NCc4ccccn4)ncnc32)cc1 the Potency was inconclusive [inhibitor, single point]. For CCC(C)C(NC(=O)C1CCC(C)CC1)C(=O)NC(CCSC)C(=O)OC (stereo unspecified), the Potency was “inactive”. For COc1cccc(NC(=O)c2ccc(C(=O)c3ccccc3)o2)c1, the Potency was inconclusive [inhibitor, single point]. With CCOC(=O)c1sc(NC(=O)CSC(=S)N2CCOCC2)nc1C the Potency was inconclusive [inhibitor, partial curve, poor fit]. With O=C(c1n[nH]c(=O)c2ccccc12)N1CCN(c2ccccc2Cl)CC1 the Potency was “inactive”. For O=C(NCCN1C(=O)S/C(=C\c2ccc(OC(F)F)cc2)C1=O)C1=COCCO1, the Potency was active: 11.2 µM. In the case of Cc1sc2ncnc(N/N=C/c3cccc(O)c3)c2c1C, the Potency is reported as inconclusive [inhibitor, single point]. For Cc1ccccc1OCc1nc2ccccc2c(=O)n1/N=C/c1c[nH]c2ccccc12, the Potency was inconclusive [inhibitor, single point]. For CCN(CC)C(=O)[C@H]1C[C@H](CC(=O)NCCCN(C)C)C(=O)N2CCc3c([nH]c4cc(CCC(=O)N(C)C)ccc34)[C@]12C, the Potency was “inactive”. For COCCn1c(-c2ccc(Cl)cc2Cl)nc2c(c(=O)c3ccccc3n2C)c1=O, the Potency was “inactive”. With COc1cc(OC)cc(-c2nnc(N(C)C(=O)c3ccncc3)s2)c1 the Potency was inconclusive [inhibitor, single point]. In the case of CCC(C)(C)C(=O)Nc1ncc(S(=O)(=O)c2ccc([N+](=O)[O-])cc2)s1, the Potency is reported as “inactive”. In the case of CCN(CC)c1ccc(NC(=O)Nc2cccc3ccccc23)cc1, the Potency is reported as inconclusive [inhibitor, single point]. In the case of COc1ccc(N(Cc2cc3cc(OC)ccc3[nH]c2=O)S(=O)(=O)c2ccc(NC(C)=O)cc2)cc1, the Potency is reported as inconclusive [inhibitor, partial curve]. In the case of CCc1ccc(CN(C)C(=O)c2cc(COc3cc(C)c(Cl)c(C)c3)on2)nc1, the Potency is reported as inconclusive [inhibitor, single point]. In the case of CCOC(=O)C1CCN(C2=C(NS(=O)(=O)c3ccc(Br)cc3)C(=O)c3ccccc3C2=O)CC1, the Potency is reported as “inactive”. In the case of COc1ccc(OC)c(NC(=O)Nc2ccc3c(c2)CCC3)c1, the Potency is reported as inconclusive [inhibitor, partial curve]. With CCN(C(=O)c1cnc(N2CCN(c3ncccn3)CC2)c2ccccc12)c1cccc(Cl)c1 the Potency was inconclusive [inhibitor, single point]. In the case of Cc1ccc(C)c(N2N=C(C(=O)Nc3ccccc3N3CCOCC3)CCC2=O)c1, the Potency is reported as inconclusive [inhibitor, partial curve]. For Cc1cccc(NC(=O)NNC(=O)CCc2ccccc2)c1, the Potency was “inactive”. For CCn1c(SCC(=O)c2[nH]c(C)c(C(C)=O)c2C)nnc1-c1ccncc1, the Potency was inconclusive [inhibitor, partial curve]. In the case of CCOC(=O)c1c(C)n(C)c2ccc(OCC(O)CNC(CC)CO)cc12 (stereo unspecified), the Potency is reported as inconclusive [inhibitor, partial curve, poor fit]. In the case of Cc1nc2ccccc2n1CC(=O)NC1CCCC1, the activity change, negative = inhibition is reported as inconclusive: -38.1% [inhibitor]. For COc1ccc(CN(C)C(=O)c2ccc(NS(=O)(=O)c3ccc(F)cc3)cc2)c(OC)c1OC, the Potency was “inactive”. With COCCn1c(-c2ccco2)nc2nc3ccccc3nc21 the Potency was inconclusive [inhibitor, partial curve]. For COC(=O)c1cc(OC)c(OC)cc1NC(=S)N1CCN(Cc2ccccc2)CC1, the Potency was inconclusive [inhibitor, partial curve]. In the case of O=C(COC(=O)C1=COCCO1)Nc1ccccc1, the Potency is reported as “inactive”. In the case of COc1ccccc1NC(=O)N1C[C@@H]2C[C@@H](C1)c1cccc(=O)n1C2, the Potency is reported as active: 1 µM. In the case of CCOc1ccc(-c2cc(C(=O)N/N=C/c3ccc(O)cc3)c3ccccc3n2)cc1, the Potency is reported as inconclusive [inhibitor, single point]. For CN(CC(=O)Nc1cccc(F)c1)C(=O)c1cc(-c2cccs2)nn1-c1ccccc1, the Potency was active: 11.2 µM. With CC(=O)c1cccc(N=c2scc(-c3ccc(S(=O)(=O)N4CCOCC4)cc3)n2CCO)c1 the Potency was active: 1 µM. In the case of CCCC(=O)Nc1ccc(NC(=O)c2ccccn2)cn1, the Potency is reported as “inactive”. For CCOC(=O)Cc1csc(NC(=O)c2sc3nc4c(C)cc(C)cc4cc3c2N)n1, the Potency was inconclusive [inhibitor, full curve]. In the case of O=C(NCCc1cnc[nH]1)c1cccs1, the Potency is reported as “inactive”. For O=C(CSc1nc2ccccc2s1)NC1CCCC1, the Potency was “inactive”. In the case of O=C(COC(=O)c1cc(Cl)ccc1Cl)Nc1ccc2[nH]c(=O)[nH]c2c1, the Potency is reported as “inactive”. In the case of COC(=O)c1nccc2c1[nH]c1ccccc12, the Potency is reported as “inactive”. For COc1cccc(/C=N/NC(=O)c2c(-c3ccccc3)noc2C)c1O, the Potency was inconclusive [inhibitor, full curve]. For Cc1ccc2nc(N=C(N)N)nc(C)c2c1, the Potency was active: 7.08 µM. For COC(C[C@@H]1O[C@H]1[C@@H](O)[C@@H](C)OCc1ccccc1)OC, the Potency was “inactive”.
